# This is one part of the list.
# Columns and labels:
# Test in all cases: glycan array binding signal (z-score within array); higher = stronger binding
# Details in all cases: glycan notation: IUPAC condensed, linker removed
# [1] = biological target: Neu5Ac(a2-3)Gal(b1-3)GlcNAc(b1-2)Man(a1-3)[Neu5Ac(a2-3)Gal(b1-3)GlcNAc(b1-2)Man(a1-6)]Man(b1-4)GlcNAc(b1-4)GlcNAc
# How it was run: (§1)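 Negative Z-scores can be read as non-binding. The Z-score is calculated within each array and then averaged across arrays of one protein sequence at different concentrations or buffers and across linkers. Arrays, 3228 in all, were curated from the Consortium for Functional Glycomics database and kept only where the protein sequence was available.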
# [2] = biological target: Neu5Ac(a2-3)Gal(b1-3)GlcNAc(b1-3)Gal(b1-3)GlcNAc
# How it was run: as §1
# [3] = biological target: Neu5Ac(a2-3)Gal(b1-3)GlcNAc(b1-3)Gal(b1-4)GlcNAc
# How it was run: as §1
# [4] = biological target: Neu5Ac(a2-3)Gal(b1-3)GlcNAc(b1-3)GalNAc
# How it was run: as §1
# [5] = biological target: Neu5Ac(a2-3)Gal(b1-3)GlcNAc(b1-4)Gal(b1-4)Glc
# How it was run: as §1
# [6] = biological target: Neu5Ac(a2-3)Gal(b1-3)GlcNAc(b1-6)GalNAc
# How it was run: as §1
# [7] = biological target: Neu5Ac(a2-3)Gal(b1-3)GlcNAc6S
# How it was run: as §1
# [8] = biological target: Neu5Ac(a2-3)Gal(b1-3)[Fuc(a1-4)]GlcNAc
# How it was run: as §1
# [9] = biological target: Neu5Ac(a2-3)Gal(b1-3)[Fuc(a1-4)]GlcNAc(b1-3)Gal(b1-3)[Fuc(a1-4)]GlcNAc
# How it was run: as §1
# [10] = biological target: Neu5Ac(a2-3)Gal(b1-3)[Fuc(a1-4)]GlcNAc(b1-3)Gal(b1-4)[Fuc(a1-3)]GlcNAc
# How it was run: as §1
# [11] = biological target: Neu5Ac(a2-3)Gal(b1-3)[GlcNAc(b1-6)]GalNAc
# How it was run: as §1
# [12] = biological target: Neu5Ac(a2-3)Gal(b1-3)[Neu5Ac(a2-3)Gal(b1-4)]GlcNAc
# How it was run: as §1
# [13] = biological target: Neu5Ac(a2-3)Gal(b1-3)[Neu5Ac(a2-6)]GalNAc
# How it was run: as §1
# [14] = biological target: Neu5Ac(a2-3)Gal(b1-3)[Neu5Ac(a2-6)]GlcNAc(b1-3)[Fuc(a1-3)[Gal(b1-4)]GlcNAc(b1-6)]Gal(b1-4)Glc
# How it was run: as §1
# [15] = biological target: Neu5Ac(a2-3)Gal(b1-3)]Neu5Ac(a2-3)Gal(b1-4)]GlcNAc
# How it was run: as §1
# Neu5Ac(a2-3)Gal(b1-4)Glc = biological target: Neu5Ac(a2-3)Gal(b1-4)Glc
# How it was run: as §1
# [16] = biological target: Neu5Ac(a2-3)Gal(b1-4)GlcNAc
# How it was run: as §1
# [17] = biological target: Neu5Ac(a2-3)Gal(b1-4)GlcNAc(b1-2)Man
# How it was run: as §1
# [18] = biological target: Neu5Ac(a2-3)Gal(b1-4)GlcNAc(b1-2)Man(a1-3)[GlcNAc(b1-2)Man(b1-4)GlcNAc(b1-2)Man(a1-6)]Man(b1-4)GlcNAc(b1-4)GlcNAc
# How it was run: as §1
# [19] = biological target: Neu5Ac(a2-3)Gal(b1-4)GlcNAc(b1-2)Man(a1-3)[GlcNAc(b1-4)][Neu5Ac(a2-3)Gal(b1-4)GlcNAc(b1-2)Man(a1-6)]Man(b1-4)GlcNAc(b1-4)GlcNAc
# How it was run: as §1
# [20] = biological target: Neu5Ac(a2-3)Gal(b1-4)GlcNAc(b1-2)Man(a1-3)[Neu5Ac(a2-3)Gal(b1-4)GlcNAc(b1-2)Man(a1-6)]Man(b1-4)GlcNAc(b1-4)GlcNAc
# How it was run: as §1
# [21] = biological target: Neu5Ac(a2-3)Gal(b1-4)GlcNAc(b1-2)Man(a1-3)[Neu5Ac(a2-3)Gal(b1-4)GlcNAc(b1-2)Man(a1-6)]Man(b1-4)GlcNAc(b1-4)[Fuc(a1-6)]GlcNAc
# How it was run: as §1
# [22] = biological target: Neu5Ac(a2-3)Gal(b1-4)GlcNAc(b1-2)Man(a1-3)[Neu5Ac(a2-6)Gal(b1-4)GlcNAc(b1-2)Man(a1-6)]Man(b1-4)GlcNAc(b1-4)GlcNAc
# How it was run: as §1
# [23] = biological target: Neu5Ac(a2-3)Gal(b1-4)GlcNAc(b1-2)[Neu5Ac(a2-3)Gal(b1-4)GlcNAc(b1-4)]Man(a1-3)[GlcNAc(b1-4)][Neu5Ac(a2-3)Gal(b1-4)GlcNAc(b1-2)[Neu5Ac(a2-3)Gal(b1-4)GlcNAc(b1-6)]Man(a1-6)]Man(b1-4)GlcNAc(b1-4)GlcNAc
# How it was run: as §1
# [24] = biological target: Neu5Ac(a2-3)Gal(b1-4)GlcNAc(b1-2)[Neu5Ac(a2-3)Gal(b1-4)GlcNAc(b1-4)]Man(a1-3)[GlcNAc(b1-4)][Neu5Ac(a2-3)Gal(b1-4)GlcNAc(b1-4)Man(a1-6)]Man(b1-4)GlcNAc(b1-4)GlcNAc
# How it was run: as §1
# [25] = biological target: Neu5Ac(a2-3)Gal(b1-4)GlcNAc(b1-2)[Neu5Ac(a2-3)Gal(b1-4)GlcNAc(b1-6)]Man(a1-6)[Neu5Ac(a2-3)Gal(b1-4)GlcNAc(b1-2)Man(a1-3)]Man(b1-4)GlcNAc(b1-4)GlcNAc
# How it was run: as §1
# [26] = biological target: Neu5Ac(a2-3)Gal(b1-4)GlcNAc(b1-2)[Neu5Ac(a2-3)Gal(b1-4)GlcNAc(b1-6)]Man(a1-6)[Neu5Ac(a2-3)Gal(b1-4)GlcNAc(b1-2)Man(a1-3)][GlcNAc(b1-4)]Man(b1-4)GlcNAc(b1-4)GlcNAc
# How it was run: as §1
# [27] = biological target: Neu5Ac(a2-3)Gal(b1-4)GlcNAc(b1-3)Gal
# How it was run: as §1
# [28] = biological target: Neu5Ac(a2-3)Gal(b1-4)GlcNAc(b1-3)Gal(b1-3)GlcNAc
# How it was run: as §1
# [29] = biological target: Neu5Ac(a2-3)Gal(b1-4)GlcNAc(b1-3)Gal(b1-4)GlcNAc
# How it was run: as §1
# [30] = biological target: Neu5Ac(a2-3)Gal(b1-4)GlcNAc(b1-3)Gal(b1-4)GlcNAc(b1-2)Man(a1-3)[Neu5Ac(a2-3)Gal(b1-4)GlcNAc(b1-3)Gal(b1-4)GlcNAc(b1-2)Man(a1-6)]Man(b1-4)GlcNAc(b1-4)GlcNAc
# How it was run: as §1
# [31] = biological target: Neu5Ac(a2-3)Gal(b1-4)GlcNAc(b1-3)Gal(b1-4)GlcNAc(b1-3)Gal(b1-4)GlcNAc
# How it was run: as §1
# [32] = biological target: Neu5Ac(a2-3)Gal(b1-4)GlcNAc(b1-3)Gal(b1-4)GlcNAc(b1-3)Gal(b1-4)GlcNAc(b1-2)Man(a1-3)[Neu5Ac(a2-3)Gal(b1-4)GlcNAc(b1-3)Gal(b1-4)GlcNAc(b1-3)Gal(b1-4)GlcNAc(b1-2)Man(a1-6)]GalNAc
# How it was run: as §1
# [33] = biological target: Neu5Ac(a2-3)Gal(b1-4)GlcNAc(b1-3)Gal(b1-4)GlcNAc(b1-3)GalNAc
# How it was run: as §1
# [34] = biological target: Neu5Ac(a2-3)Gal(b1-4)GlcNAc(b1-3)Gal(b1-4)GlcNAc(b1-3)[Neu5Ac(a2-3)Gal(b1-4)GlcNAc(b1-3)Gal(b1-4)GlcNAc(b1-6)]GalNAc
# How it was run: as §1
# [35] = biological target: Neu5Ac(a2-3)Gal(b1-4)GlcNAc(b1-3)Gal(b1-4)GlcNAc(b1-6)[Gal(b1-3)]GalNAc
# How it was run: as §1
# [36] = biological target: Neu5Ac(a2-3)Gal(b1-4)GlcNAc(b1-3)Gal(b1-4)[Fuc(a1-3)]GlcNAc
# How it was run: as §1
# [37] = biological target: Neu5Ac(a2-3)Gal(b1-4)GlcNAc(b1-3)GalNAc
# How it was run: as §1
# [38] = biological target: Neu5Ac(a2-3)Gal(b1-4)GlcNAc(b1-3)[Neu5Ac(a2-3)Gal(b1-4)GlcNAc(b1-6)]GalNAc
# How it was run: as §1
# [39] = biological target: Neu5Ac(a2-3)Gal(b1-4)GlcNAc(b1-6)GalNAc
# How it was run: as §1
# [40] = biological target: Neu5Ac(a2-3)Gal(b1-4)GlcNAc(b1-6)[Gal(b1-3)]GalNAc
# How it was run: as §1
# [41] = biological target: Neu5Ac(a2-3)Gal(b1-4)GlcNAc(b1-6)[Neu5Ac(a2-3)Gal(b1-3)]GalNAc
# How it was run: as §1
# [42] = biological target: Neu5Ac(a2-3)Gal(b1-4)GlcNAc6S
# How it was run: as §1
# [43] = biological target: Neu5Ac(a2-3)Gal(b1-4)[Fuc(a1-3)]GlcNAc
# How it was run: as §1
# [44] = biological target: Neu5Ac(a2-3)Gal(b1-4)[Fuc(a1-3)]GlcNAc(b1-2)Man
# How it was run: as §1
binder,measurement,setting,value
"HPA (Helix pomatia), Q2F1K8 (protein) MQAFYSGLLLLCVVAFAAAQRVQSGKIDCGNDAGWAKVPSDDPGRDNTRELAKNITFASPYCRPPVVLLSITQLDVEQSQNLRVIARLYSVSPTGFKASCYTWHNTKVYSMSISWISIENY",glycan array binding signal (z-score),[1],-0.195
same,glycan array binding signal (z-score),[2],-0.156
same,glycan array binding signal (z-score),[3],-0.311
same,glycan array binding signal (z-score),[4],-0.239
same,glycan array binding signal (z-score),[5],-0.252
same,glycan array binding signal (z-score),[6],-0.332
same,glycan array binding signal (z-score),[7],-0.281
same,glycan array binding signal (z-score),[8],-0.359
same,glycan array binding signal (z-score),[9],-0.09
same,glycan array binding signal (z-score),[10],-0.105
same,glycan array binding signal (z-score),[11],-0.351
same,glycan array binding signal (z-score),[12],-0.415
same,glycan array binding signal (z-score),[13],-0.163
same,glycan array binding signal (z-score),[14],-0.215
same,glycan array binding signal (z-score),[15],-0.307
same,glycan array binding signal (z-score),Neu5Ac(a2-3)Gal(b1-4)Glc,-0.004
same,glycan array binding signal (z-score),[16],-0.167
same,glycan array binding signal (z-score),[17],-0.116
same,glycan array binding signal (z-score),[18],-0.501
same,glycan array binding signal (z-score),[19],-0.3
same,glycan array binding signal (z-score),[20],-0.287
same,glycan array binding signal (z-score),[21],-0.312
same,glycan array binding signal (z-score),[22],-0.303
same,glycan array binding signal (z-score),[23],-0.275
same,glycan array binding signal (z-score),[24],-0.301
same,glycan array binding signal (z-score),[25],-0.227
same,glycan array binding signal (z-score),[26],-0.361
same,glycan array binding signal (z-score),[27],-0.425
same,glycan array binding signal (z-score),[28],-0.259
same,glycan array binding signal (z-score),[29],-0.335
same,glycan array binding signal (z-score),[30],0.641
same,glycan array binding signal (z-score),[31],-0.202
same,glycan array binding signal (z-score),[32],0.915
same,glycan array binding signal (z-score),[33],-0.363
same,glycan array binding signal (z-score),[34],0.138
same,glycan array binding signal (z-score),[35],0.16
same,glycan array binding signal (z-score),[36],-0.265
same,glycan array binding signal (z-score),[37],-0.366
same,glycan array binding signal (z-score),[38],-0.279
same,glycan array binding signal (z-score),[39],-0.396
same,glycan array binding signal (z-score),[40],-0.24
same,glycan array binding signal (z-score),[41],-0.231
same,glycan array binding signal (z-score),[42],-0.36
same,glycan array binding signal (z-score),[43],-0.308
same,glycan array binding signal (z-score),[44],-0.061
